From publication PMC4336329 (PLoS ONE, 2015)
The whole screen tested about 310,000 compounds, of which about 14,000 (4.5%) showed an effect of 50% or more. The effect is printed as a negative number. The list shows a part of the results.

Biological target: human ether-à-go-go-related gene (hERG) potassium channel (human, UniProt Q12809)
Test: primary screen, population patch clamp on CHO cells stably expressing hERG
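Note: peak tail current of the secondary pulse compared with the same well before compound.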

Sequence of human ether-à-go-go-related gene (hERG) potassium channel (Q12809 whole entry, looked up): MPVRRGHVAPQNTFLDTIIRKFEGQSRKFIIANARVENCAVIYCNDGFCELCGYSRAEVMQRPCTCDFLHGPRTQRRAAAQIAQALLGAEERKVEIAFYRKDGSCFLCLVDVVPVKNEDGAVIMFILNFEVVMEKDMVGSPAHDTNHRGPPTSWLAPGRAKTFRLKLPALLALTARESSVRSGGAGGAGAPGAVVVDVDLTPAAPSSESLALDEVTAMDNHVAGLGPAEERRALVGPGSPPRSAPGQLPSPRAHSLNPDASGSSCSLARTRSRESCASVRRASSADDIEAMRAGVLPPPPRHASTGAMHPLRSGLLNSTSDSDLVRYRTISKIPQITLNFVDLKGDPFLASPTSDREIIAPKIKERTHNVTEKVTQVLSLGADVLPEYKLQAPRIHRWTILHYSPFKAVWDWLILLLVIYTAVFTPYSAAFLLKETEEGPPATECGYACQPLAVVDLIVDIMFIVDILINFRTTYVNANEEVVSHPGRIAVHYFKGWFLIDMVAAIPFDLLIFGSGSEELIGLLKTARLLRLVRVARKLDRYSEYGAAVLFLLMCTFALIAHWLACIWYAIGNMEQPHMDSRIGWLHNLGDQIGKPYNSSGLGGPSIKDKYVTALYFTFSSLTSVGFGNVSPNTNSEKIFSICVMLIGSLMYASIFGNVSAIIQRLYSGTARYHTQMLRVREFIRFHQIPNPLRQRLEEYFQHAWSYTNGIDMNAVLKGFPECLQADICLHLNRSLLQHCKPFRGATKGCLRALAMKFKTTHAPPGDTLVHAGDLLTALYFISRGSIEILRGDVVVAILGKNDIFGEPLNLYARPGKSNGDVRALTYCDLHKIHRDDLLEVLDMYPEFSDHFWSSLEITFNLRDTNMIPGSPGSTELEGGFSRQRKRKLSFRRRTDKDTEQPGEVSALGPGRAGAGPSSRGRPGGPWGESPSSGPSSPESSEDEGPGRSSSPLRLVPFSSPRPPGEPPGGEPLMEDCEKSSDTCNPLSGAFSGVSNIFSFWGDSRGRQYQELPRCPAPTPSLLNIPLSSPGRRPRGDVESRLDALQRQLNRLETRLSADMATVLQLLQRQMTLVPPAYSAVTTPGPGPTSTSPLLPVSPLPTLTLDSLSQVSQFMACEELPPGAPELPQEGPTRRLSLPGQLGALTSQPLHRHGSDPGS

| Compound | hERG current change (%, negative = inhibition) at 10uM [%] |
| --- | --- |
| CC(=O)Nc1nc(C)nc(-c2ccccc2)c1C(C)=O | 2.06 |
| O=C(CSc1nnc(SCc2cccc3ccccc23)s1)c1ccc2c(c1)OCO2 | 18.4 |
| COc1ccc(OCc2cc(C(=O)NC3CCOCC3)no2)c2ccccc12 | 10.5 |
| COc1ccccc1S(=O)Cc1ccc(C(=O)NC2CCCC2)o1 (stereo not shown) | 0.941 |
| COc1ccc(OC)c(N/C(C)=C/C(=O)c2ccccc2)c1 | -7.86 |
| Cc1cc(C)n(NC(=S)NC2CCCC2)c(=O)c1C#N | 13.5 |
| C=CC(=C)CC(NC)c1ccccc1 (stereo not shown) | 8.72 |
| CCC1(C)N(O)C(C)(C)C(c2ccc(F)cc2)=[N+]1[O-] (stereo not shown) | -5.99 |
| COc1ccc(NC(=O)C2CCN(S(=O)(=O)c3ccc(OC)c(OC)c3)CC2)c(OC)c1 | -16.1 |
| O=C(NC(=O)c1c(F)cccc1F)Nc1cc(Cl)c(F)c(Cl)c1F | 13.2 |
| Cc1ccc(C)c(N2CCN(C(=O)CCC(=O)N3CCOc4ccc(Cl)cc43)CC2)c1 | -18.9 |
| Cc1cc(C)n(CC(=O)N2CCCC(N3CCN(c4ccccc4C)CC3)C2)n1 (stereo not shown) | -14 |
| CC(C)(C)c1ccc(S(=O)(=O)NCc2ccc(C(=O)N3CCCC3)cc2)cc1 | 11.6 |
| CCOC(=O)C(CCCCC(NC(C)=O)(C(=O)OCC)C(=O)OCC)(NC(C)=O)C(=O)OCC | 8.24 |
| Cc1sc(NC(=O)c2ccccc2)c(C(c2ccc(Cl)cc2)N2CCN(CCO)CC2)c1C (stereo not shown) | -4.47 |
| CCCN(CC1CC1)C(=O)CSc1ncnc2sccc12 | -21.2 |
| CCc1cc(=O)oc2cc(C)cc(OC(C)C(=O)NCCCN3CCCC3=O)c12 (stereo not shown) | -15.1 |
| CC(C)(C)NC(=O)NC(=O)CSc1nncs1 | 14.9 |
| Cc1ccc(S(=O)(=O)N2CCOCC2)c(C)c1-n1cnnn1 | -1.49 |
| CCOc1ccc(CCNC(=O)COC(=O)COc2ccccc2C)cc1OCC | 8.57 |
| COc1ccc(Nc2nc3ccccc3nc2C)cc1 | -5.18 |
| CCNC(=S)N1CCc2cc(OC)c(OC)cc2C1COc1ccccc1OC (stereo not shown) | 10.3 |

| Compound | hERG current change (%, negative = inhibition) at 10uM [%] |
| --- | --- |
| COC(=O)c1c(NC(=O)CSc2nnnn2-c2ccc3c(c2)OCO3)sc(C)c1C | 12.4 |
| COc1ccc(CCNCc2ccccc2)cc1.O=C(O)C(=O)O | -23.9 |
| CCOc1ccccc1NC(=O)CSc1nnc2ccc(-c3ccccn3)nn12 | 2.41 |
| O=C(CC1C(=O)NCCN1CC1CCCCC1)NCc1cccc(F)c1F (stereo not shown) | -6.94 |
| Fc1ccc(NC(=S)N2CCCN(c3ccc(C(F)(F)F)cn3)CC2)c(F)c1 | -25.8 |
| CCCCSc1nnc(C)c(=O)[nH]1 | 3.25 |
| COc1ccccc1C1(CC(=O)N2CCCCC2)CCOC(C(C)C)C1 (stereo not shown) | -2.29 |
| CC(C)(C)n1nnnc1CN1CCN2CCCC2C1 (stereo not shown) | -0.605 |
| CCc1c(C)sc(NC(=O)c2cccs2)c1C(N)=O | 6.47 |
| O=C(NC1CCCc2c1cnn2-c1ccc(F)cc1F)c1cnccn1 (stereo not shown) | -5.23 |
| Cc1c(C2N3CC4(C)CN2CC(C)(C3)C4=O)c2ccccc2n1C (stereo not shown) | -13 |
| Cc1c(N=C2N=C(NC(=O)c3cccs3)c3ccccc32)c(=O)n(-c2ccccc2)n1C | -0.696 |
| Cc1ccc(C(=O)NC(NCc2ccco2)C(Cl)(Cl)Cl)cc1 (stereo not shown) | -13.5 |
| CSc1nc2ncc(C#N)cn2n1 | 19.5 |
| CN1CCN(CCc2cn3ncc(C#N)c3nc2-c2ccc(F)cc2)CC1 | -22.9 |
| Cn1c(SCC2CCCO2)nnc1-c1cccc([N+](=O)[O-])c1 (stereo not shown) | 8.76 |
| COC(=O)c1[nH]c2cccc(OC)c2c1NC(=O)CCN1CCC(C(N)=O)CC1 | 5.84 |
| COC(=O)c1ccccc1S(=O)(=O)N(Cc1cc2ccc(OC)cc2[nH]c1=O)CC1CCCO1 (stereo not shown) | -25.7 |
| CCN(CCCNC(=O)C1CCCN(S(=O)(=O)c2cnc[nH]2)C1)c1ccccc1 (stereo not shown) | -9.26 |
| COc1cccc(-n2c(C)nnc2SCC(=O)Nc2ccccc2N2CCOCC2)c1 | -42 |
| CC1Oc2ccccc2C(=O)N(CC(=O)c2ccc3c(c2)OCCO3)C1=O (stereo not shown) | 4.12 |
| Cn1ccnc1SCC(=O)NC1CCCCC1 | 24.1 |

| Compound | hERG current change (%, negative = inhibition) at 10uM [%] |
| --- | --- |
| Cc1onc(-c2c(Cl)cccc2Cl)c1C(=O)N1CCCc2ccccc21 | -0.703 |
| CCOC(=O)NC(CC(=O)O)c1ccc(OCC)cc1 (stereo not shown) | 3.69 |
| CCOC(=O)c1cn(Cc2cccc(Cl)c2)c2cc(C)nn2c1=O | -19.9 |
| O=C(c1ccc(Cl)s1)N(Cc1nnc(-c2ccccc2Cl)o1)C1CC1 | -1.01 |
| O=C(O)CCCN1C(=O)/C(=C\c2ccc(-c3nc4ccccc4s3)o2)SC1=S | 16.5 |
| CN(CC(=O)NCC(=O)Nc1ccc(F)c(F)c1F)C1CCS(=O)(=O)C1 (stereo not shown) | 7.88 |
| COc1cccc(CNC(=O)CSc2ccc(-c3ccncc3)nn2)c1 | -25.3 |
| CCCCCCCc1c(O)nc(SCC(=O)O)[nH]c1=O | 13.5 |
| CC(NC(=O)CCCOc1ccc(Cl)cc1)c1ccccc1 (stereo not shown) | -7.83 |
| CC(C)c1nnc2c(N(C)S(=O)(=O)c3ccccc3)nc3ccccc3n12 | -23.8 |
| CCOC(=O)c1sc(N2C(=O)C(O)=C(C(=O)c3ccco3)C2c2ccc([N+](=O)[O-])cc2)nc1C (stereo not shown) | 9.53 |
| CCC(OC(=O)c1cccs1)C(=O)NCc1ccc(C)cc1 (stereo not shown) | 17.7 |
| Cc1nnc(NC(=O)c2cccc(NC(=O)C(C)C)c2)s1 | 12.1 |
| COc1cccc(NC(=O)[C@@H]2CCCN2S(=O)(=O)c2cccc3cccnc23)c1 | -5.87 |
| Cc1ccc(C(=O)Nc2cc(Cl)ccc2-n2cncn2)s1 | -19 |
| O=C(OCc1c(F)cccc1Cl)c1cccnc1Cl | -0.507 |
| Fc1ccccc1CSc1nncn1NCc1cccs1 | 4.51 |
| Cc1ccc(CNC(=O)C2C3C=CC4(CN(Cc5cccnc5)C(=O)C24)O3)cc1 (stereo not shown) | 0.287 |
| COc1ccc(NC(=S)N(CCc2nc3cc(C)c(C)cc3[nH]2)Cc2cccnc2)cc1 | 3.69 |
| Cc1cccc2c1NC(=O)C2=Nc1ccc(Cl)cc1 | 5.73 |
| COc1ccccc1C(=O)N1CCCN(C(=O)c2ccccc2OC)CC1 | 18.7 |
| CCOCc1c(C(=O)NC2CCCCCC2)oc2ccccc12 | 8.56 |

| Compound | hERG current change (%, negative = inhibition) at 10uM [%] |
| --- | --- |
| COc1ccc(S(=O)(=O)Nc2c(C)n(C)n(-c3ccccc3)c2=O)c(Cl)c1Cl | -37 |
| COc1ccc(-c2c[n+]3c(n2-c2ccccc2)CCCCC3)cc1.[Br-] | -18.6 |
| CCN(CC)C(=O)C1CCN(Cc2cn(C)nc2-c2ccc(Oc3ccccc3)cc2)CC1 | -46.9 |
| Cn1cccc1/C=C1/SC(=S)N(CC(=O)O)C1=O | 8.14 |
| COc1ccc(C(=O)Nc2cccc(-c3ccc4nncn4n3)c2)cc1 | -0.753 |
| COc1cc(NC(=O)CCN2CCN(C/C=C/c3ccccc3)CC2)cc(OC)c1 | -69.3 |
| CCC(=NCCO)c1c(O)n(C2CCCCC2)c(=O)[nH]c1=O | -14.6 |
| Cc1ccc(NC(=S)N2CCN(C(=O)C3CCCO3)CC2)c(C)c1 (stereo not shown) | -9.39 |
| COc1ccc(C(=O)Nc2cccc(N(C)S(C)(=O)=O)c2)cc1OC | 0.733 |
| Cc1cc(NC(=O)COC(=O)C2CC(=O)N(c3ccc(Cl)cc3)C2)no1 (stereo not shown) | -12.2 |
| COc1ccc(-c2nc(N)n(C(=O)c3ccc(C)cc3)n2)cc1 | 6.84 |
| CCc1nnc(NC(=O)COc2ccc3ccccc3c2)s1 | 19.9 |
| CC(C)C[C@H](NC(=O)[C@H](Cc1ccccc1)n1c(=O)[nH]c2ccccc2c1=O)C(=O)N1CCC(C(=O)O)CC1 | 3.82 |
| CCN(CC(=O)Nc1ccc(OC)cc1)C(=O)c1ccc2[nH]c3c(c2c1)CC(C)CC3 (stereo not shown) | -11.3 |
| Cc1ccc(-c2csc3ncnc(SCc4ccc(C(=O)O)cc4)c23)cc1 | 6.68 |
| c1cncc(-c2cn(C[C@H]3CC[C@@H]([C@@H]4CC[C@H](Cn5cc(-c6cccnc6)nn5)O4)O3)nn2)c1 | -58.5 |
| COc1ccccc1C(=O)Oc1cc(N)n(S(=O)(=O)c2ccccc2)n1 | 8.72 |
| N#Cc1c(-c2ccccc2)cc(-c2ccccc2)nc1SCc1nnc(-c2ccccc2)o1 | 10.8 |
| O=C(O)CC1(CC(=O)Nc2ccc3ccccc3n2)CCCCC1 | 14.6 |
| CCOC(=O)N1CCN(S(=O)(=O)c2c(C)cc(C)cc2C)CC1 | -5.61 |
| CC1CC(C)CN(Cc2nc3c(c(=O)n(C)c(=O)n3C)n2CCN2CCOCC2)C1 (stereo not shown) | -4.59 |
| CCc1nc2c(c(=O)c3ccccc3n2C)c(=O)n1-c1ccc(F)cc1 | -8.56 |
